Reference: article PMC4336329 (PLoS ONE, 2015)
In all, about 310,000 compounds went through this assay and about 14,000 (4.5%) showed an effect of 50% or more. Effects have a minus sign here. This is one part of the list.

Each molecule was assayed against human ether-à-go-go-related gene (hERG) potassium channel (human, UniProt Q12809) (assay: primary screen, population patch clamp on CHO cells stably expressing hERG).
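Note: peak tail current of the secondary pulse compared with the same well before compound.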

Sequence of human ether-à-go-go-related gene (hERG) potassium channel (Q12809 whole entry, looked up): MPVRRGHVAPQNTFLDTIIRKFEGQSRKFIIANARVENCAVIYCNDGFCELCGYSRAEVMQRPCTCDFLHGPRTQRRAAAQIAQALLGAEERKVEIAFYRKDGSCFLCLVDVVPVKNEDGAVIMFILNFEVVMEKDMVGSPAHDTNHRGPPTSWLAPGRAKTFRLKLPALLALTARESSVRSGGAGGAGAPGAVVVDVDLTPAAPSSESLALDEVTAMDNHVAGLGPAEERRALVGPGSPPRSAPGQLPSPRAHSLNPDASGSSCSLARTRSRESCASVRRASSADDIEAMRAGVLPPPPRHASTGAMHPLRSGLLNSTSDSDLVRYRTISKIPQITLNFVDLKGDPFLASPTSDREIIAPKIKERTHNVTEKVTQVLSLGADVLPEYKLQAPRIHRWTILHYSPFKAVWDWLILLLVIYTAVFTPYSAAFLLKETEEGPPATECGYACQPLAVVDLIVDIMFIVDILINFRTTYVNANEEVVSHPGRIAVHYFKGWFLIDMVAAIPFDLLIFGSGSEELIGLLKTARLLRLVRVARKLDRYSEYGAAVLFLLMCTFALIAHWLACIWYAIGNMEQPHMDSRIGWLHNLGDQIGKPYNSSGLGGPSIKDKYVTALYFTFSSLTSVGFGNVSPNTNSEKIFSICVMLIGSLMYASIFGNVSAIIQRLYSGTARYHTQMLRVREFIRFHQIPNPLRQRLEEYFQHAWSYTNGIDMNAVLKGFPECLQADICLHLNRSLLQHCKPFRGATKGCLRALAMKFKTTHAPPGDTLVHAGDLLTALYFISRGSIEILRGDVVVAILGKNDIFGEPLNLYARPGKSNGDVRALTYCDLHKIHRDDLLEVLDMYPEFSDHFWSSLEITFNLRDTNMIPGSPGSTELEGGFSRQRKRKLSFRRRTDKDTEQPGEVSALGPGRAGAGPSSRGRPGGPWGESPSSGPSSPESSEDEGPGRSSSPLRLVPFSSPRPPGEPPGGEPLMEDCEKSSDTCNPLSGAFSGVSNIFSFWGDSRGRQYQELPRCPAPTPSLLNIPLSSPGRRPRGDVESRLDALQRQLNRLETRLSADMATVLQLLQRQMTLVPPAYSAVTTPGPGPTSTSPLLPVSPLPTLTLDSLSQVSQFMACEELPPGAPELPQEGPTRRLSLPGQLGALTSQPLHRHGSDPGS

| SMILES | hERG current change (%, negative = inhibition) at 10uM [%] |
| --- | --- |
| O=C(NCc1csc(-c2ccccc2)n1)c1ccco1 | -40 |
| CCSc1nc2c(c(=O)n1Cc1ccccc1)SC(C)C2 (centres unmarked) | -25 |
| COc1ccc(-c2cc(C(=O)N/N=C/c3ccc4c(c3)OCO4)c3ccccc3n2)c(OC)c1 | 12 |
| Cc1ccc(CNC(=O)C2CCCN(S(=O)(=O)c3ccc(F)cc3)C2)cc1 (centres unmarked) | -27.2 |
| Cc1c(C(=O)O)oc2c1C(O)CCC2 (centres unmarked) | 0.768 |
| COc1ccc(CCC(=O)N(c2nnc(-c3cccnc3)s2)C(C)C)cc1.Cl | -49.6 |
| COc1ccc(CCNC(=O)c2ccc(N(C)S(=O)(=O)c3ccc(C)cc3)cc2)cc1 | -10.4 |
| O=C(Nc1nccs1)c1ccc2ccccc2c1 | 20.9 |
| CN1CCN(S(=O)(=O)c2ccc(NC(=O)c3ccc(Br)o3)cc2)CC1 | -25.6 |
| Cc1ncc([N+](=O)[O-])n1Cc1ccccc1F | 2.98 |
| COc1ccc2c(c1)c(CC(=O)Nc1ccc(C(C)=O)cc1)c(C)n2C(=O)c1ccc(Cl)cc1 | 1.03 |
| Cc1cc(OCC(=O)Nc2ccc3oc(-c4ccncc4)nc3c2)ccc1Cl | -6.44 |
| CCOc1ccc(-c2ccc(SC)nn2)cc1 | 9.3 |
| O=C1C=C(c2ccc(F)c(Cl)c2)C[C@@H](c2ccc(F)cc2)C1 | 0.783 |
| CCn1c(=N)n(CC(O)c2cccs2)c2ccccc21.Cl (centres unmarked) | -60.4 |
| COc1ccc(/C=C(\NC(=O)c2cccs2)C(=O)Nc2ccc(C)cc2)cc1OC | 1.34 |
| Cc1c(Cl)cccc1NC(=O)COC(=O)c1c2c(nc3ccccc13)CCN(Cc1ccccc1)C2 | 2.82 |
| Cc1cccc(NC(=S)NC2CCN(Cc3ccccc3)CC2)c1C | -18.7 |
| Cn1c(=O)oc2cc(S(=O)(=O)Nc3ccc(Cl)cc3F)ccc21 | -2.7 |
| CCCCOc1ccc(C(=O)Nc2ccncc2)cc1 | 15.3 |
| CCOC(=O)C[C@H]1c2ccccc2S(=O)(=O)N1Cc1cc(OC)c(OC)c(OC)c1 | -8.45 |
| Cc1nn(Cc2ccc(Cl)cc2)c(C)c1NC(=O)c1c(-c2ccccc2)noc1C | -65.1 |

| SMILES | hERG current change (%, negative = inhibition) at 10uM [%] |
| --- | --- |
| O=C(COc1ncnc2ccccc12)N1CCN(S(=O)(=O)c2ccc(Cl)cc2)CC1 | -9.26 |
| O=C(CNC(=O)c1ccc(Cl)cc1Cl)NCCCn1ccnc1 | 6.31 |
| COc1cccc(-c2nc(CS(=O)CC(=O)NC3CCCCC3)c(C)o2)c1 (centres unmarked) | -0.124 |
| CCN(c1cccc(C)c1)S(=O)(=O)c1cnc[nH]1 | 9.23 |
| CC(C)(C)c1cc(CP(=O)(c2ccccc2)c2ccccc2)cc(C(C)(C)C)c1O | 14.7 |
| Cc1c(Nc2cc(N3CCCC(C)C3)c3nonc3c2[N+](=O)[O-])c(=O)n(-c2ccccc2)n1C (centres unmarked) | -19.3 |
| CC(C)Cn1cc(C(=O)NCCCOC(C)C)c2c3ccccc3n(C)c2c1=O | 8.67 |
| COc1ccccc1CN1CC(C(=O)NCCc2cn[nH]c2)CCC1=O (centres unmarked) | 4.6 |
| O=C1N=c2ccccc2=C1c1sc(=S)n(-c2ccc(O)cc2)c1O | 16.6 |
| CCS(=O)(=O)NCCCCc1ccccc1 | -35.4 |
| Cc1cc(=O)n2c(c1C#N)SC1CCCCC12O (centres unmarked) | 7.75 |
| CC(C)[C@H](NC(=O)C1CCN(S(=O)(=O)c2ccccc2)CC1)C(=O)NCc1ccccn1 | 18.5 |
| CCCCCCn1c(CN2CCCCC2CC)nc2c1c(=O)n(C)c(=O)n2C (centres unmarked) | -51.9 |
| O=C(N/N=C/c1c(O)n(CCc2ccc(F)cc2)c(=O)[nH]c1=O)c1ccccc1 | -2.63 |
| CC(C)[C@@H]1CC[C@@H](C)c2c(-c3ccccc3)n[nH]c21 | 10.9 |
| COc1cc(/C=C2\C(=N)N3N=C(S(C)(=O)=O)SC3=NC2=O)cc(OC)c1OCCOc1ccc(C)cc1 | 5.03 |
| C=CCN(c1ccccc1)S(=O)(=O)c1cccc(C(=O)N2CC(C)CC(C)C2)c1 (centres unmarked) | 0.0123 |
| COc1cccc(C(=O)NC(C)C(c2cccs2)N2CCOCC2)c1 (centres unmarked) | -11.2 |
| CC(=O)C1=C(C)NC(=O)NC1c1cc(Br)ccc1OCC(N)=O (centres unmarked) | 3.24 |
| CC1=C(C(=O)OC(C)C)C(c2c(O)ccc3ccccc23)NC(=O)N1 (centres unmarked) | 8.55 |
| CN(c1ccccc1)S(=O)(=O)c1cccc2ccccc12 | -15.6 |
| CCCCNC(=O)CSc1nc2ccc(N3CCOCC3)cc2c(=O)n1CCc1ccccc1 | -19.3 |
